From patent publication US20250313546A1, “NUCLEIC ACID BINDERS” (UNIVERSITY OF STRATHCLYDE, priority 2022, published 2025)

Columns and labels:
[1] = tested on: T. congolense IL3000 (a drug sensitive wild type); assay: Resazurin-based (Alamar blue) drug sensitivity assay; conditions: Trypanosoma congolense, read-out: IC50 T. congo
Description: A detailed description of the procedure for evaluating activity against trypanosomes, using an Alamar Blue (resazurin) assay, is described below.
The BSF T. congolense IL3000 and a clonal line, 6C3, adapted from IL3000 in vitro with diminazene aceturate (Merck), leading to a ˜10-fold resistance, were cultured in TCBSF3 medium without red blood cells (see Zheoat, A. M. et al., 2021, Pathogens (Basel, Switzerland), 10(2), 175). Dulbecco's minimum essential medium (MEM) was supplemented with 25 mM (4-(2-hydroxyethyl)-1-piperazineethanesulfonic acid) (HEPES), 26 mM NaHCO3, 5.6 mM Dd-glucose, 1 mM sodium pyruvate, 40 μM adenosine, 100 μM hypoxanthine, 16.5 μM thymidine, and 25 μM bathocuproinedisulfonic acid disodium salt. To this basal medium were added β-mercaptoethanol (0.0014% v/v), 1.6 mM glutamine, 100 units/mL penicillin/0.1 mg/mL streptomycin (Gibco), 20% goat serum (Gibco), and 5% Serum Plus (SAFC Bi-osciences) (see Coustou, V. et al., 2010, PLoS Negl. Trop. Dis., 4, e618 and Giordani, F. et al., J. Med. Chem., 2019, 62, 3021-3035). The BSF T. congolense IL3000 WT and its derived line, 6C3, were cultured at 34° C. in a humidified, 5% CO2 environment.
A resazurin-based (Alamar blue) drug sensitivity assay was used to assess and compare the activity of standard trypanocides in the different cell lines investigated (see Gould, M. K. et al., Anal. Biochem., 2008, 382, 87-93). Briefly, 23 doubling dilutions of the test compound of the invention, starting at 100 μM, and a compound-free control were prepared in 100 μL medium in a 96-well white plate (Greiner Bio-one, Frickenhausen, Germany). The cells were adjusted to 2×10^4 cells/mL for T. b. brucei and T. equiperdum; 4×10^4 cells/mL for T. evansi; and 5×10^5 cells/mL for T. congolense in the appropriate medium. 100 μL of the adjusted cells was then added to the wells containing drug dilutions and incubated for 48 h under respective culture condition. Thereafter, 20 μL of 125 mg/mL resazurin sodium dye was added, and the plate was incubated for a further 24 h. The resorufin fluorescence in each well of the plate was determined and used to calculate the Half maximal effective concentration (EC50) of the drug, as described in Carruthers, L. V. et al., Mol. Microbiol., 2021, 116, 564-588.

[2] = tested on: T. b. brucei Lister S427 (a drug-sensitive wild type); assay: as above; conditions: for IC50: Trypanosoma brucei, read-out: IC50 T.b. brucei; for T.b. brucei Selectivity Indices (SI, IC50 (μM)/IC50 (μM)) Group / T.b. brucei Selectivity Index (SI, IC50 (μM)/IC50 (μM)), numeric value: cytotoxicity against HEK293 cells vs T.b. brucei

Row | SMILES | IC50 [1] [nM] | IC50 [2] [nM] | T.b. brucei Selectivity Indices (SI, IC50 (μM)/IC50 (μM)) Group ([2]; Quaternary ammoniums) | T.b. brucei Selectivity Indices (SI, IC50 (μM)/IC50 (μM)) Group ([2]; Amides) | T.b. brucei Selectivity Indices (SI, IC50 (μM)/IC50 (μM)) Group ([2]; Alkyl Amidines and NH Pyrroles) | T.b. brucei Selectivity Index (SI, IC50 (μM)/IC50 (μM)), numeric value [2]
1 | [H]/N=C(\CCNC(=O)c1cc(NC(=O)c2cc(NC(=O)c3ccc(C=Cc4ccc5nonc5c4)cc3)cn2C)cn1C)NCCCN(C)C [Ia46, (E)-4-(4-(2-(benzo[c][1,2,5]oxadiazol-5-yl)vinyl)benzamido)-N-(5-((3-((3-(dimethylamino)propyl)amino)-3-iminopropyl)carbamoyl)-1-methyl-1H-pyrrol-3-yl)-1-methyl-1H-pyrrole-2-carboxamide] | > 1000 | > 1000 | – | – | – | –
2 | CCCCCCCCCCCC[N+](C)(C)CCNC(=O)c1cc(NC(=O)c2cc(NC(=O)c3ccc(/C=C/c4cnc5ccccc5c4)cc3)cn2C)cn1C [Ic11, (E)-N,N-dimethyl-N-(2-(1-methyl-4-(1-methyl-4-(4-(2-(quinolin-3-yl)vinyl)benzamido)-1H-pyrrole-2-carboxamido)-1H-pyrrole-2-carboxamido)ethyl)dodecan-1-aminium] | 50 to 250 | 250 to 1000 | – | – | – | –
3 | CCCCCCCCCCCCCCC[N+](C)(C)CCNC(=O)c1cc(NC(=O)c2cc(NC(=O)c3ccc(/C=C/c4cnc5ccccc5c4)cc3)cn2C)cn1C [Ic14, (E)-N,N-dimethyl-N-(2-(1-methyl-4-(1-methyl-4-(4-(2-(quinolin-3-yl)vinyl)benzamido)-1H-pyrrole-2-carboxamido)-1H-pyrrole-2-carboxamido)ethyl)pentadecan-1-aminium] | > 1000 | > 1000 | – | – | – | –
4 | CCCCCCCCCCC[N+](C)(C)CCNC(=O)c1cc(NC(=O)c2cc(NC(=O)c3ccc(/C=C/c4cnc5ccccc5c4)cc3)cn2C)cn1C [Ic10, (E)-N,N-dimethyl-N-(2-(1-methyl-4-(1-methyl-4-(4-(2-(quinolin-3-yl)vinyl)benzamido)-1H-pyrrole-2-carboxamido)-1H-pyrrole-2-carboxamido)ethyl)undecan-1-aminium] | 50 to 250 | 50 to 250 | C (Group C: 80 < SI <= 120) | – | – | –
5 | CONC(=N)CCNC(=O)c1cc(NC(=O)c2cc(NC(=O)c3ccc(/C=C/c4cnc5ccccc5c4)cc3)cn2C)cn1C [Ia28, (E)-N-(3-imino-3-(methoxyamino)propyl)-1-methyl-4-(1-methyl-4-(4-(2-(quinolin-3-yl)vinyl)benzamido)-1H-pyrrole-2-carboxamido)-1H-pyrrole-2-carboxamide] | 250 to 1000 | < 50 | – | – | – | –
6 | C/N=C(/CCNC(=O)c1cc(NC(=O)c2cc(NC(=O)c3ccc(/C=C/c4ccc(C(F)(F)F)cc4)cc3)cn2C)cn1C)NC [Ia5, 1-methyl-4-(1-methyl-4-(4-((E)-4-(trifluoromethyl)styryl)benzamido)-1H-pyrrole-2-carboxamido)-N—((Z)-3-(methylamino)-3-(methylimino)propyl)-1H-pyrrole-2-carboxamide] | < 50 | 250 to 1000 | – | – | – | –
7 | CCNC(=O)c1cc(NC(=O)c2cc(NC(=O)c3ccc(/C=C/c4cnc5ccccc5c4)cc3)cn2C)cn1C [IVa6, (E)-N-ethyl-1-methyl-4-(1-methyl-4-(4-(2-(quinolin-3-yl)vinyl)benzamido)-1H-pyrrole-2-carboxamido)-1H-pyrrole-2-carboxamide] | 250 to 1000 | 250 to 1000 | – | C (Group C: 1.5 < SI <= 3) | – | –
8 | CC(C)=CCC/C(C)=C/CNC(=O)c1cc(NC(=O)c2cc(NC(=O)c3ccc(/C=C/c4cnc5ccccc5c4)cc3)cn2C)cn1C [IVa10, N—((E)-3,7-dimethylocta-2,6-dien-1-yl)-1-methyl-4-(1-methyl-4-(4-((E)-2-(quinolin-3-yl)vinyl)benzamido)-1H-pyrrole-2-carboxamido)-1H-pyrrole-2-carboxamide] | > 1000 | 250 to 1000 | – | B (Group B: 0.7 < SI <= 1.5) | – | –
9 | COc1cccc(/C=C/c2ccc(C(=O)Nc3cc(C(=O)Nc4cc(C(=O)NCCC(=N)NC(C)C)n(C)c4)n(C)c3)cc2)c1 [Ia19, (E)-N-(3-imino-3-(isopropylamino)propyl)-4-(4-(4-(3-methoxystyryl)benzamido)-1-methyl-1H-pyrrole-2-carboxamido)-1-methyl-1H-pyrrole-2-carboxamide] | < 50 | 250 to 1000 | – | – | B (Group B: 70 < SI <= 150) | –
10 | CNC(=N)CCNC(=O)c1cc(NC(=O)c2cc(NC(=O)c3ccc(/C=C/c4ccc5ccccc5c4)cc3)cn2C)cn1C [Ia4, (E)-N-(3-imino-3-(methylamino)propyl)-1-methyl-4-(1-methyl-4-(4-(2-(naphthalen-2-yl)vinyl)benzamido)-1H-pyrrole-2-carboxamido)-1H-pyrrole-2-carboxamide] | 50 to 250 | > 1000 | – | – | – | –
11 | CC(C)NC(=O)c1cc(NC(=O)c2cc(NC(=O)c3ccc(/C=C/c4cnc5ccccc5c4)cc3)cn2C)cn1C [IVa4, (E)-N-isopropyl-1-methyl-4-(1-methyl-4-(4-(2-(quinolin-3-yl)vinyl)benzamido)-1H-pyrrole-2-carboxamido)-1H-pyrrole-2-carboxamide] | 250 to 1000 | 250 to 1000 | – | B (Group B: 0.7 < SI <= 1.5) | – | –
12 | CCCCCCCC[N+](C)(C)CCNC(=O)c1cc(NC(=O)c2cc(NC(=O)c3ccc(/C=C/c4cnc5ccccc5c4)cc3)cn2C)cn1C [Ic7, (E)-N,N-dimethyl-N-(2-(1-methyl-4-(1-methyl-4-(4-(2-(quinolin-3-yl)vinyl)benzamido)-1H-pyrrole-2-carboxamido)-1H-pyrrole-2-carboxamido)ethyl)octan-1-aminium] | < 50 | < 50 | D (Group D: SI > 120) | – | – | 247
13 | CCCCC[N+](C)(C)CCNC(=O)c1cc(NC(=O)c2cc(NC(=O)c3ccc(/C=C/c4cnc5ccccc5c4)cc3)cn2C)cn1C [Ic4, (E)-N,N-dimethyl-N-(2-(1-methyl-4-(1-methyl-4-(4-(2-(quinolin-3-yl)vinyl)benzamido)-1H-pyrrole-2-carboxamido)-1H-pyrrole-2-carboxamido)ethyl)pentan-1-aminium] | < 50 | 50 to 250 | C (Group C: 80 < SI <= 120) | – | – | 107
14 | CCCCCCC/N=C(\CCNC(=O)c1cc(NC(=O)c2cc(NC(=O)c3ccc(/C=C/c4ccc(N(C)C)cc4)nc3)cn2C)cn1C)NCCCCCCC [Ia33, 6-((E)-4-(dimethylamino)styryl)-N-(5-((5-(((E)-3-(heptylamino)-3-(heptylimino)propyl)carbamoyl)-1-methyl-1H-pyrrol-3-yl)carbamoyl)-1-methyl-1H-pyrrol-3-yl)nicotinamide] | > 1000 | > 1000 | – | – | – | –
15 | CCC[N+](C)(C)CCNC(=O)c1cc(NC(=O)c2cc(NC(=O)c3ccc(/C=C/c4cnc5ccccc5c4)cc3)cn2C)cn1C [Ic2, (E)-N,N-dimethyl-N-(2-(1-methyl-4-(1-methyl-4-(4-(2-(quinolin-3-yl)vinyl)benzamido)-1H-pyrrole-2-carboxamido)-1H-pyrrole-2-carboxamido)ethyl)propan-1-aminium] | < 50 | < 50 | – | – | – | –
16 | CCCCCCC/N=C(/CCNC(=O)c1cc(NC(=O)c2cc(NC(=O)c3ccc(/C=C/c4cnc5ccccc5c4)cc3)cn2C)cn1C)NCCCCCCC [Ia37, N—((Z)-3-(heptylamino)-3-(heptylimino)propyl)-1-methyl-4-(1-methyl-4-(4-((E)-2-(quinolin-3-yl)vinyl)benzamido)-1H-pyrrole-2-carboxamido)-1H-pyrrole-2-carboxamide] | > 1000 | > 1000 | – | – | – | –
17 | COCCOCCOCCNC(=O)c1cc(NC(=O)c2cc(NC(=O)c3ccc(/C=C/c4cnc5ccccc5c4)cc3)cn2C)cn1C [IVa8, (E)-N-(2-(2-(2-methoxyethoxy)ethoxy)ethyl)-1-methyl-4-(1-methyl-4-(4-(2-(quinolin-3-yl)vinyl)benzamido)-1H-pyrrole-2-carboxamido)-1H-pyrrole-2-carboxamide] | > 1000 | > 1000 | – | D (Group D: SI > 3) | – | –
18 | CC[N+](C)(C)CCNC(=O)c1cc(NC(=O)c2cc(NC(=O)c3ccc(/C=C/c4cnc5ccccc5c4)cc3)cn2C)cn1C [Ic1, (E)-N-ethyl-N,N-dimethyl-2-(1-methyl-4-(1-methyl-4-(4-(2-(quinolin-3-yl)vinyl)benzamido)-1H-pyrrole-2-carboxamido)-1H-pyrrole-2-carboxamido)ethan-1-aminium] | 50 to 250 | < 50 | – | – | – | –
